# Measured values: paper PMC6838200, “Polarisome scaffolder Spa2-mediated macromolecular condensation of Aip5 for actin polymerization” (Nature Communications, 2019)
# Target: the molecule itself
# Test: negative-stain TEM; 1 µM purified protein on carbon-coated copper grids, uranyl acetate stain, non-crowding conditions
protein,measurement,value
"Aip5, full length (actin-interacting protein 5) (natural protein, Heterogeneous higher-order oligomers; no defined number of copies; also called Aip5-FL; full-length Aip5; source: budding yeast (YMY2043, galactose-induced overexpression), purified (Ni-NTA, Superdex200 SEC)) not shown",binding result,binds
